Source: PMC2991254
No constants are given. Whether binding was seen depends on the method and setting. Some binding calls cover weakened binding; strength is not graded here.

Protein sequences, listed by entry. Tags and fused reporters are not part of them.
UniProt O82743: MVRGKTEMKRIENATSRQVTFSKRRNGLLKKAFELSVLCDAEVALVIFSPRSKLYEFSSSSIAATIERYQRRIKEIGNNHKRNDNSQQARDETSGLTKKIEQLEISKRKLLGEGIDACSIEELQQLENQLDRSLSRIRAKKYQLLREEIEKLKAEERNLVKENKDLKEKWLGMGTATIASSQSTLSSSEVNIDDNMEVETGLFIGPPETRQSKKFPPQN
UniProt Q9FIS1: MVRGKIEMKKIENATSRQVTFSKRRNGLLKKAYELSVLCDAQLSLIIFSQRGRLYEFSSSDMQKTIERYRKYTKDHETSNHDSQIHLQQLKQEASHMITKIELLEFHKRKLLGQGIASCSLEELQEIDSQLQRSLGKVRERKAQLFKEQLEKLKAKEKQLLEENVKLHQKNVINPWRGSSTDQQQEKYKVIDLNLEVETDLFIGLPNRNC
UniProt Q9SI38: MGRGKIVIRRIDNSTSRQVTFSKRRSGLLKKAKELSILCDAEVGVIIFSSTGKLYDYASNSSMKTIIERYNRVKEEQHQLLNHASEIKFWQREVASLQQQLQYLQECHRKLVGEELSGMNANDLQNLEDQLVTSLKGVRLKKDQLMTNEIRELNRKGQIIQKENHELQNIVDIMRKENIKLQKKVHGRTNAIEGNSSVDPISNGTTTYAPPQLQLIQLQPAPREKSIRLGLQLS
UniProt P17839: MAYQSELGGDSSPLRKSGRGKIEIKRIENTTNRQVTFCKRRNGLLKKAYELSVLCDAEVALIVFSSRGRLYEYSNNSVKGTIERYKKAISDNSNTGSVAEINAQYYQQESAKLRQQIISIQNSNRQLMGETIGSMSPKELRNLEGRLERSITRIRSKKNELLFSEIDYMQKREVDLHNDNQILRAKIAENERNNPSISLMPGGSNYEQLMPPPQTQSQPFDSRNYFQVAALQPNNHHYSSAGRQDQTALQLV
UniProt Q38838: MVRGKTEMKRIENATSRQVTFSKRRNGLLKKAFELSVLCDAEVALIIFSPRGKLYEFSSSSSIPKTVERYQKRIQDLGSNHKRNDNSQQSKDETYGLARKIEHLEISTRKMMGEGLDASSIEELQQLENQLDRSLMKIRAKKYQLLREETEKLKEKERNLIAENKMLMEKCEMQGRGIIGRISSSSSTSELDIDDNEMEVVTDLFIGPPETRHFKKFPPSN

Legend:
Test in all cases: two-hybrid; matrix-based yeast two-hybrid, GAL4-AD and GAL4-BD fusions (pDEST22, pDEST32), in duplicate, at least two reporter genes; medium lacking Leu, Trp and His with 1 mM 3-amino-1,2,4-triazole, growth scored after 4 days at 20°C
[1] = biological target: AGAMOUS-LIKE24 (Arabidopsis thaliana) (UniProt O82794)
[2] = biological target: T1, AGL15 (Arabidopsis thaliana) (UniProt Q38847)
T1 sequence: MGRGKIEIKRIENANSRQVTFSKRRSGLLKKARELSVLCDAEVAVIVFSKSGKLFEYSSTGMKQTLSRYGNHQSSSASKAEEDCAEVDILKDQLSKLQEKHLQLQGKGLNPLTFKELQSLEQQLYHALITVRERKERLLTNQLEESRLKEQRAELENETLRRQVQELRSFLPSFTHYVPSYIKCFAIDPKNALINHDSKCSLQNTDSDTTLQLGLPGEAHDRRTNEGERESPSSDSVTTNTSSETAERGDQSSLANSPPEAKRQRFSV

[3] = biological target: T2, AGL71 (Arabidopsis thaliana) (UniProt Q9LT93)
T2 sequence: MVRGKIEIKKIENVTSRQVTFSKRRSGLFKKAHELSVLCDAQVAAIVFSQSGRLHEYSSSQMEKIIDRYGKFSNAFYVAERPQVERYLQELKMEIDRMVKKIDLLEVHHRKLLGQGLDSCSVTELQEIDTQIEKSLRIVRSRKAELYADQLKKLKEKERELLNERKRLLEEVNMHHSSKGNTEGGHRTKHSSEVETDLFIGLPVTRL

[4] = biological target: AGL19 (Arabidopsis thaliana) (UniProt O82743)
[5] = biological target: AGL42 (Arabidopsis thaliana) (UniProt Q9FIS1)
[6] = biological target: ANR1 (Arabidopsis thaliana) (UniProt Q9SI38)
[7] = biological target: T3, XAL1 (Arabidopsis thaliana) (UniProt Q38841)
T3 sequence: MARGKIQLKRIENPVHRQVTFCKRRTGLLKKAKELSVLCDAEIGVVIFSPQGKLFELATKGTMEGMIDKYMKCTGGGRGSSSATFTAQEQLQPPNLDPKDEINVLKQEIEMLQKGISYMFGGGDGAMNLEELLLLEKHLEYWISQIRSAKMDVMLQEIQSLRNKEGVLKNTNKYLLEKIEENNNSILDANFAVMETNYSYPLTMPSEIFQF

[8] = biological target: AGAMOUS (Arabidopsis thaliana) (UniProt P17839)
[9] = biological target: T4, AGL13 (Arabidopsis thaliana) (UniProt Q38837)
T4 sequence: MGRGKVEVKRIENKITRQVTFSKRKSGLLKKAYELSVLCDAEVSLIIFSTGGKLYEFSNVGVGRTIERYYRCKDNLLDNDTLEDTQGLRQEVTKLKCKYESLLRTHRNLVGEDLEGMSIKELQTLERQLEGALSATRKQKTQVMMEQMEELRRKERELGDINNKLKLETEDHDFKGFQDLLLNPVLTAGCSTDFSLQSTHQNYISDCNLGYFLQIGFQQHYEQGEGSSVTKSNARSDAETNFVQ

[10] = biological target: AGAMOUS LIKE14 (Arabidopsis thaliana) (UniProt Q38838)

B1: AGL24 R61S (protein, UniProt O82794 1-220)
chain: MAREKIRIKKIDNITARQVTFSKRRRGIFKKADELSVLCDADVALIIFSATGKLFEFSSSSMRDILGRYSLHASNINKLMDPPSTHLRLENCNLSRLSKEVEDKTKQLRKLRGEDLDGLNLEELQRLEKLLESGLSRVSEKKGECVMSQIFSLEKRGSELVDENKRLRDKLETLERAKLTTLKEALETESVTTNVSSYDSGTPLEDDSDTSLKLGLPSWE
In the case of B1, the binding [1] is reported as “binds”, the binding [2] is reported as “no binding” and the binding [3] is reported as “no binding”. The binding [4] was “no binding”, the binding [5] was “binds” and the binding [6] was “no binding”. For the same binder, the binding [7] was “no binding”, the binding [8] was “binds” and the binding [9] was “no binding”. The binding [10] was “binds”.

B2: AGAMOUS-LIKE24 (protein, UniProt O82794 1-220)
chain: MAREKIRIKKIDNITARQVTFSKRRRGIFKKADELSVLCDADVALIIFSATGKLFEFSSSRMRDILGRYSLHASNINKLMDPPSTHLRLENCNLSRLSKEVEDKTKQLRKLRGEDLDGLNLEELQRLEKLLESGLSRVSEKKGECVMSQIFSLEKRGSELVDENKRLRDKLETLERAKLTTLKEALETESVTTNVSSYDSGTPLEDDSDTSLKLGLPSWE
With B2 the binding [3] was “no binding”, the binding [4] was “no binding” and the binding [5] was “no binding”. The binding [6] was “no binding”, the binding [7] was “no binding” and the binding [9] was “no binding”. The binding [10] was “binds”.
